Results reported in the supplement of paper PMC7826260.
This is one part of the list. Viral Rep nickase domains cut single-stranded DNA in vitro (3 µM enzyme, 1 h, 37 °C); shown is the middle of each 90-letter strand. The score is log2 (uncut reads / reads without enzyme); strong cutting gives strongly negative numbers. There is no active / inactive call. Reads are scaled to the total; where an enzyme cuts many sequences, the uncut ones exceed 0.

What was measured:
Assay in all cases: uncleaved DNA left, log2 of reads against the no-enzyme library (log2 ratio); higher = less cleavage (more negative = more Rep cleavage of the k-mer); sequences stand for … in CTCGTCCG…ACCGGAGA
[1] = system: T1, Rep nickase domain of Muscovy duck circovirus
T1 sequence (protein, residues 1-111, tag omitted): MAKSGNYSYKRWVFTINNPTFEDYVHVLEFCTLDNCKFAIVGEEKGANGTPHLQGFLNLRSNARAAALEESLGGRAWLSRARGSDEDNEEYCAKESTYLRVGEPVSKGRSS
Protocol: (§1)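 A pool of 90-nt single-stranded DNAs with seven random bases just before the constant AC of the nick site (name = the seven bases) was cut by 3 µM recombinant His6-SUMO-tagged Rep nickase domain (300 nM DNA, 50 mM HEPES pH 8.0, 50 mM NaCl, 1 mM MnCl2, 1 h, 37 °C, three replicates). Uncut DNA was amplified and sequenced.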

[2] = system: T2, Rep nickase domain of banana bunchy top virus
T2 sequence (protein, residues 1-94, tag omitted): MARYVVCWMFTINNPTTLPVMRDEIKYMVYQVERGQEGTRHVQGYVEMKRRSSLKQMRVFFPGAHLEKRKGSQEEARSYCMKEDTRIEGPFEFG
Protocol: as §1

[3] = system: T3, Rep nickase domain of cabbage leaf curl virus
T3 sequence (protein, residues 1-116, tag omitted): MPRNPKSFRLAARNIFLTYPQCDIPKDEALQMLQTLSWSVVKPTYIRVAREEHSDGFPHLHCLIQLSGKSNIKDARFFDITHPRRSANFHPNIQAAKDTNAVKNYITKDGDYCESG
Protocol: as §1

[4] = system: T4, Rep nickase domain of chickpea chlorotic dwarf virus
T4 sequence (protein, residues 1-124, tag omitted): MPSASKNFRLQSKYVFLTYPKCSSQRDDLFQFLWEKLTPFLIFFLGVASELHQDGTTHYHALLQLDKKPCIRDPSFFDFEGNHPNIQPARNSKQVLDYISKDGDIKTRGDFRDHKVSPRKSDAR
Protocol: as §1

[5] = system: T5, Rep nickase domain of faba bean necrotic yellows virus
T5 sequence (protein, residues 1-98, tag omitted): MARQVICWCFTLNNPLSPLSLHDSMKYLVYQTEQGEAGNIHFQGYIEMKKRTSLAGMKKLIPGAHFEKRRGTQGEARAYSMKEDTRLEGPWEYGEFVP
Protocol: as §1

[6] = system: T6, Rep nickase domain of maize striate mosaic virus
T6 sequence (protein, residues 1-117, tag omitted): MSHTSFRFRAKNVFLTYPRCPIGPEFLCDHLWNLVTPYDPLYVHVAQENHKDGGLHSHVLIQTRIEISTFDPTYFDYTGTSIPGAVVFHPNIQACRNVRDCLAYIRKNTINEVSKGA
Protocol: as §1

[7] = system: T7, Rep nickase domain of porcine circovirus 2
T7 sequence (protein, residues 2-116, tag omitted): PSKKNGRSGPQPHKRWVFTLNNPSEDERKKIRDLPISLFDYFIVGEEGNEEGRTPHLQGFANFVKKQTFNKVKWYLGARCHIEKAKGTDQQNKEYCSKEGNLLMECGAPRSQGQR
Protocol: as §1

[8] = system: T8, Rep nickase domain of tomato yellow leaf curl virus
T8 sequence (protein, residues 1-136, tag omitted): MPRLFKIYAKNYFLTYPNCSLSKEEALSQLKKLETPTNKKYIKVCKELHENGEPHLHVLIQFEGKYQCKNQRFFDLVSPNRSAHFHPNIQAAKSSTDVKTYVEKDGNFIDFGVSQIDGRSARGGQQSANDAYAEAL
Protocol: as §1

[9] = system: T9, Rep nickase domain of wheat dwarf virus
T9 sequence (protein, residues 1-137, tag omitted): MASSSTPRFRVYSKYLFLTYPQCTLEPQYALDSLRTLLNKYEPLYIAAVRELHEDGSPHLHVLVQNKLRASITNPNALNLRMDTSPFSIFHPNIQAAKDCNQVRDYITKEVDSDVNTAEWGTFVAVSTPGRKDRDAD
Protocol: as §1

Sequence | uncleaved DNA left (log2) [1] | uncleaved DNA left (log2) [2] | uncleaved DNA left (log2) [3] | uncleaved DNA left (log2) [4] | uncleaved DNA left (log2) [5] | uncleaved DNA left (log2) [6] | uncleaved DNA left (log2) [7] | uncleaved DNA left (log2) [8] | uncleaved DNA left (log2) [9]
AAACCAT | 0.177 | 0.121 | -0.257 | -2.25 | 0.00428 | -0.34 | -0.41 | 0.12 | 0.0821
ACATGGG | 0.134 | 0.0346 | -0.7 | 0.123 | 0.0307 | -0.681 | 0.195 | 0.0438 | -0.128
CAGAGTT | 0.0753 | -1.06 | -0.24 | -1.97 | -0.443 | 0.304 | -2.86 | -0.0725 | -0.166
AGCCAGC | -0.0109 | 0.0757 | -0.0348 | -0.014 | 0.0601 | -0.376 | 0.0528 | 0.0481 | -0.0278
TCGTACT | -3.82 | -1.01 | -1.4 | -2.72 | -2.66 | -0.246 | -3.98 | -0.13 | -0.518
CGGCGGT | 0.0827 | -0.192 | -0.0028 | 0.298 | -0.0384 | 0.453 | 0.0686 | -0.183 | -0.0822
TTGATTA | -0.072 | -0.0593 | -0.0134 | -0.75 | 0.0783 | -0.142 | -0.164 | 0.0491 | -0.0206
GTCAACC | 0.0377 | 0.0861 | 0.293 | 0.534 | -0.0665 | 1.45 | -0.049 | 0.0254 | 0.0628
CACGTCT | -0.0627 | -0.0375 | -0.572 | -2.66 | 0.0401 | -0.885 | -0.35 | 0.00025 | -0.157
TGACCTG | 0.0492 | -0.047 | 0.00966 | 0.509 | -0.207 | 1.28 | 0.131 | 0.00759 | 4.7e-05
CTCCCTC | -0.0155 | -0.123 | 0.0658 | -0.2 | -0.153 | -0.355 | -0.113 | -0.0386 | -0.00355
ACTCATG | -0.0148 | 0.0656 | -0.616 | -0.541 | 0.0162 | -1.26 | 0.191 | 0.0475 | -0.179
GCGCCTT | -0.0371 | -0.0821 | 0.0343 | -0.0899 | -0.0655 | 0.838 | -0.147 | -0.00863 | 0.0924
GGCCATC | 0.117 | 0.139 | 0.739 | 1.69 | 0.0404 | 2.12 | 0.187 | 0.122 | 0.115
CGTGTAT | -0.00666 | -0.000158 | 0.217 | 0.254 | 0.0168 | 0.596 | -0.0219 | 0.111 | 0.085
CAGCTAG | -0.176 | -0.204 | -0.471 | -0.421 | -0.211 | -1.07 | -0.0377 | -0.267 | -0.0742
CCCGGCG | -0.142 | -0.0808 | -0.614 | 0.361 | 0.0423 | -0.418 | 0.2 | 0.027 | -0.112
CCCGCAC | -0.228 | -0.211 | -0.211 | -0.429 | -0.153 | -0.711 | -0.0866 | -0.112 | -0.24
CGACCTA | -0.0961 | 0.0691 | -0.0823 | 0.146 | -0.0284 | 0.48 | -0.231 | -0.149 | -0.0669
TGCTGTA | -0.0245 | -0.0189 | -0.056 | 0.0825 | -0.0673 | 0.414 | -0.158 | -0.136 | -0.115

Sequence | uncleaved DNA left (log2) [1] | uncleaved DNA left (log2) [2] | uncleaved DNA left (log2) [3] | uncleaved DNA left (log2) [4] | uncleaved DNA left (log2) [5] | uncleaved DNA left (log2) [6] | uncleaved DNA left (log2) [7] | uncleaved DNA left (log2) [8] | uncleaved DNA left (log2) [9]
ACTGCGG | 0.012 | -0.0419 | -0.819 | -0.646 | 0.0419 | -0.894 | 0.151 | -0.0511 | -0.165
ACCGCGG | 0.0961 | -0.039 | -0.29 | -0.223 | 0.0197 | -0.463 | 0.154 | 0.0548 | 0.0538
GACCGGA | 0.0473 | 0.0645 | 0.243 | 0.643 | 0.0222 | 0.303 | 0.134 | 0.0431 | 0.0457
TGGACAT | -0.114 | -0.0568 | 0.781 | 2.11 | -0.102 | 2.3 | 0.0834 | -0.112 | 0.1
ACCTGGT | -0.161 | 0.0294 | -0.314 | -0.159 | 0.13 | -0.402 | -1.12 | 0.0767 | 0.0183
GACAGCC | -0.0566 | -0.0309 | 0.368 | 0.807 | 0.0105 | 0.471 | 0.0224 | -0.11 | -0.0754
GGTTGGA | 0.106 | 0.184 | 0.59 | 0.955 | 0.0518 | 1.54 | 0.325 | 0.289 | 0.234
GCGCCTG | -0.026 | -0.000218 | 0.0235 | 0.568 | -0.0293 | 1.63 | 0.0334 | -0.179 | 0.0439
ACGAGCT | -0.0493 | -0.0374 | -0.415 | -0.634 | 3.5e-05 | -0.858 | -0.159 | -0.0282 | -0.0803
ACTGCAC | -0.0806 | -0.0823 | -0.26 | -0.225 | 0.0368 | -0.778 | -0.11 | -0.164 | -0.106
CTGCATC | -0.0672 | 0.0411 | 0.0404 | -0.0724 | -0.0417 | -0.603 | 0.0378 | -0.0636 | 0.00767
ACCGGCA | -0.179 | 0.0336 | -0.173 | -0.111 | -0.0787 | -0.774 | 0.0789 | -0.0208 | -0.103
TGGACCG | 0.15 | 0.16 | -0.294 | -0.143 | 0.168 | -0.545 | 0.3 | 0.134 | 0.196
CGCTCTG | 0.159 | 0.0405 | 0.118 | 0.604 | 0.0988 | 1.3 | 0.175 | 0.0242 | 0.224
TACGATG | 0.0264 | -0.0342 | -0.174 | 0.0517 | -0.0794 | 0.193 | 0.115 | -0.0896 | -0.0518
ACGCGGA | -0.156 | -0.184 | -0.549 | -0.531 | -0.125 | -0.875 | 0.0638 | -0.097 | -0.173
AAATGGC | 0.118 | 0.0552 | -0.532 | -0.752 | 0.117 | -1.2 | 0.125 | 0.107 | 0.0095
CCGTGTT | -2.47 | -0.78 | -2.11 | -1.85 | -1.93 | -0.858 | -2.57 | -0.057 | -2.34
CACCCTT | -0.0231 | -0.168 | -0.611 | -2.44 | -0.207 | -0.0262 | -1.11 | -0.0583 | -0.259
TAATTCG | 0.0482 | -0.00945 | -1.08 | -0.445 | 0.138 | -0.954 | 0.155 | 0.0811 | 0.0567

Sequence | uncleaved DNA left (log2) [1] | uncleaved DNA left (log2) [2] | uncleaved DNA left (log2) [3] | uncleaved DNA left (log2) [4] | uncleaved DNA left (log2) [5] | uncleaved DNA left (log2) [6] | uncleaved DNA left (log2) [7] | uncleaved DNA left (log2) [8] | uncleaved DNA left (log2) [9]
TCTCCCT | -0.157 | -0.0212 | 0.0914 | -1.06 | -0.0144 | 0.514 | -1.39 | 0.0318 | 0.102
ATCTGCC | 0.0665 | 0.0944 | -0.0459 | 0.172 | -0.0393 | -0.245 | 0.0816 | 0.00156 | 0.00136
CATAAAT | -0.129 | -0.321 | -0.209 | -1.56 | -0.0222 | -0.637 | -1.17 | -0.0602 | -0.0543
TTCGCTT | -0.208 | -0.0384 | -0.194 | -1.77 | -0.0597 | -0.8 | -0.411 | 0.0117 | -0.108
CTGCGAC | -0.107 | -0.101 | -0.578 | -0.261 | -0.0564 | -0.975 | 0.00862 | -0.105 | -0.107
TTCGCTA | 0.0528 | -0.229 | -0.0492 | -0.77 | 0.00434 | -0.68 | -0.0183 | 0.00965 | -0.0578
GGCCCAA | 0.0965 | 0.265 | 0.607 | 1.38 | 0.188 | 1.94 | 0.195 | 0.221 | 0.346
CAAGCCC | 0.0398 | -0.0755 | -0.147 | -0.298 | -0.0612 | -0.245 | 0.0275 | -0.105 | -0.0231
TTTCCAT | -0.00128 | 0.0925 | 0.15 | -0.519 | -0.149 | -0.0769 | -0.352 | 0.0832 | 0.0968
TTCTCAG | 0.0582 | -0.0798 | -0.586 | -0.763 | 0.0691 | -1.23 | 0.0755 | 0.0142 | -0.0853
CACACCT | -0.124 | -0.274 | -1.14 | -2.79 | -0.0744 | -0.871 | -0.981 | -0.216 | -0.142
TCTGGCA | -0.0265 | -0.0429 | -0.252 | -0.475 | 0.0995 | -0.677 | -0.0666 | 0.00183 | -0.172
ACGTAAG | 0.0123 | -0.0556 | -0.683 | -0.354 | 0.0479 | -1.2 | 0.21 | 0.0607 | 0.0512
TTGAGCT | 0.0516 | 0.0318 | -0.187 | -1.19 | 0.0437 | -1.02 | -0.00687 | -0.0619 | -0.132
TGTTGGC | 0.0847 | 0.0193 | -0.0107 | -0.135 | 0.0201 | -0.662 | 0.0809 | 0.0724 | 0.0048
TTGAATA | -0.104 | -0.0184 | 0.127 | -0.244 | 0.0262 | 0.603 | -0.0669 | 0.0174 | 0.052
CCCGGTC | 0.0107 | 0.0262 | 0.618 | 1.55 | 0.146 | 1.46 | 0.182 | 0.0315 | 0.0307
CTCCAAG | -0.0458 | -0.0323 | -0.747 | -0.307 | -0.18 | -1.23 | 0.0798 | 0.14 | 0.131
ACTTCGA | -0.0357 | -0.144 | -0.84 | -0.71 | -0.00759 | -1.37 | 0.122 | -0.015 | -0.118
GACCACA | 0.0907 | 0.126 | 0.393 | -0.77 | 0.0065 | 0.285 | -0.0143 | 0.0754 | 0.12
